Results from the antibiotic and cytotoxicity screens of Wong et al. (2023).
The list shows a part of the results.

Assays:
[1] = tested on: HSkMC (human skeletal muscle cells); experiment: cytotoxicity call (relative viability < 0.9); settings: 10 µM
[2] = tested on: S. aureus RN4220; experiment: growth inhibition call (relative growth <= 0.2); settings: 50 µM

| Structure (SMILES) | cytotoxicity call [1] | growth inhibition call [2] |
| --- | --- | --- |
| C[C@@H](NC(=O)C[C@@H]1CC[C@@H](NC(=O)CN2CCOCC2)[C@@H](CO)O1)c1ccccc1 | inactive | inactive |
| CC(=O)N[C@@H]1[C@@H](OCCOc2ccc(Cl)cc2C)O[C@H](CO)[C@H](O)[C@@H]1O | inactive | inactive |
| CC1CN(c2c(F)c(N)c3c(=O)c(C(=O)O)cn(C4CC4)c3c2F)CC(C)N1 (stereo unspecified) | inactive | inactive |
| C[C@H]1CN([C@@H](C)CO)C(=O)c2cc(NC(=O)CCCN(C)C)ccc2O[C@@H]1CN(C)S(=O)(=O)c1cn(C)cn1 | inactive | inactive |
| Cc1noc(C)c1NC(=O)Nc1ccc2c(c1)C(=O)N([C@@H](C)CO)C[C@H](C)[C@H](CN(C)C(=O)Nc1ccc3c(c1)OCO3)OCCCC[C@H](C)O2 | inactive | inactive |
| CC(=O)N(C)C[C@@H]1Oc2cc(C#CCN(C)C)ccc2S(=O)(=O)N([C@@H](C)CO)C[C@H]1C | inactive | inactive |
| Cc1ccc(S(=O)(=O)Nc2cccc3c2O[C@H](CN(C)Cc2ccc(-c4ccccc4)cc2)[C@@H](C)CN([C@H](C)CO)C3=O)cc1 | inactive | inactive |
| COc1cc(F)c(F)c(Nc2ccc(I)cc2F)c1NS(=O)(=O)C1(C[C@H](O)CO)CC1 | inactive | active |
| COc1ccc2c(c1)OC1c3ccc(OC)cc3OCC21 (stereo unspecified) | inactive | inactive |
| O=C(O)/C=C/c1cnc[nH]1 | inactive | inactive |
| C[C@H]1CN([C@@H](C)CO)C(=O)Cc2cc(NC(=O)Nc3cccc4ccccc34)ccc2O[C@H]1CN(C)S(=O)(=O)c1ccc(F)cc1 | inactive | inactive |
| O=C(NCC1(c2nc(-c3ccccc3)cs2)CCOCC1)c1cccc(-c2noc(C(F)(F)F)n2)c1 | inactive | inactive |
| C[C@H](CO)N1C[C@H](C)[C@H](CN(C)CC2CC2)OCCCC[C@H](C)Oc2ccc(NC(=O)Nc3ccc(F)cc3)cc2C1=O | inactive | inactive |
| COc1ccc2c3c(n(c2c1)C)[C@@H](CO)N(Cc1cc(cc(c1)OC)OC)C[C@]13CCN(CC1)S(=O)(=O)c1cn(cn1)C | inactive | inactive |
| COc1ccc(CN(C)C[C@H]2Oc3c(NS(=O)(=O)c4cn(C)cn4)cccc3C(=O)N([C@H](C)CO)C[C@@H]2C)cc1 | inactive | inactive |
| C[C@H](CO)N1C[C@H](C)[C@@H](CN(C)S(C)(=O)=O)Oc2ccc(NC(=O)NC3CCCCC3)cc2CC1=O | inactive | inactive |
| C[C@@H]1CCCCO[C@H](CN(C)S(=O)(=O)c2ccccc2)[C@H](C)CN([C@@H](C)CO)C(=O)c2cc(NC(=O)NC3CCCCC3)ccc2O1 | inactive | inactive |
| COc1ccc2c3c(n(c2c1)C)[C@@H](CO)N(Cc1cc(cc(c1)OC)OC)C[C@]13CN(C1)S(=O)(=O)c1cn(cn1)C | inactive | inactive |
| C[C@H]1CCCCO[C@@H](CN(C)Cc2ccncc2)[C@@H](C)CN([C@@H](C)CO)C(=O)c2cc(NC(=O)CCC(F)(F)F)ccc2O1 | inactive | inactive |
| O=C(NCCCN1CCOCC1)[C@H]1[C@H](CO)[C@H]2Cn3c(cccc3=O)[C@@H]1N2C(=O)NC1CCCC1 | inactive | inactive |
| C[C@@H]1CCCCO[C@@H](CN(C)CC2CC2)[C@H](C)CN([C@H](C)CO)C(=O)c2cc(NC(=O)Nc3cccc4ccccc34)ccc2O1 | inactive | inactive |
| Cc1ccc(S(=O)(=O)Nc2ccc3c(c2)C(=O)N([C@H](C)CO)C[C@H](C)[C@@H](CN(C)CC2CCCCC2)OCCCC[C@H](C)O3)cc1 | inactive | inactive |
| CCCNC(=O)c1cc2c(c(-c3cccc(-c4ccc(F)cc4)c3)n1)[C@@H](CCO)N([S@](=O)C(C)(C)C)C2 | inactive | inactive |
| C[C@H](CO)N1C[C@H](C)[C@H](CN(C)S(=O)(=O)c2cccc(F)c2)Oc2ncc(C#CC3CCCC3)cc2C1=O | inactive | inactive |
| C[C@H](CO)N1C[C@H](C)[C@H](CN(C)Cc2ccccc2)Oc2ncc(-c3cccc(C(F)(F)F)c3)cc2C1=O | inactive | inactive |
| O=C(C[C@H]1CC[C@H]2[C@@H](COC[C@@H](O)CN2S(=O)(=O)c2ccc(F)cc2)O1)N[C@H]1CCN(Cc2ccccc2)C1 | inactive | inactive |
| CN1CCN(C(=O)C[C@@H]2CC[C@H]3[C@@H](COC[C@@H](O)CN3C(=O)C3CCOCC3)O2)CC1 | inactive | inactive |
| C[C@@H]1CN([C@H](C)CO)C(=O)Cc2cc(NC(=O)NC3CCCCC3)ccc2O[C@H]1CN(C)Cc1ccc(Cl)c(Cl)c1 | active | inactive |
